# Screen size: about 310,000 compounds; about 2,200 (0.71%) showed an effect of 50% or more. Effects have a minus sign here. Some of the results follow.
# Target: human ether-à-go-go-related gene (hERG) potassium channel (human, UniProt Q12809)
# Experiment: primary screen, population patch clamp on CHO cells stably expressing hERG
# human ether-à-go-go-related gene (hERG) potassium channel, sequence (Q12809 whole entry, looked up): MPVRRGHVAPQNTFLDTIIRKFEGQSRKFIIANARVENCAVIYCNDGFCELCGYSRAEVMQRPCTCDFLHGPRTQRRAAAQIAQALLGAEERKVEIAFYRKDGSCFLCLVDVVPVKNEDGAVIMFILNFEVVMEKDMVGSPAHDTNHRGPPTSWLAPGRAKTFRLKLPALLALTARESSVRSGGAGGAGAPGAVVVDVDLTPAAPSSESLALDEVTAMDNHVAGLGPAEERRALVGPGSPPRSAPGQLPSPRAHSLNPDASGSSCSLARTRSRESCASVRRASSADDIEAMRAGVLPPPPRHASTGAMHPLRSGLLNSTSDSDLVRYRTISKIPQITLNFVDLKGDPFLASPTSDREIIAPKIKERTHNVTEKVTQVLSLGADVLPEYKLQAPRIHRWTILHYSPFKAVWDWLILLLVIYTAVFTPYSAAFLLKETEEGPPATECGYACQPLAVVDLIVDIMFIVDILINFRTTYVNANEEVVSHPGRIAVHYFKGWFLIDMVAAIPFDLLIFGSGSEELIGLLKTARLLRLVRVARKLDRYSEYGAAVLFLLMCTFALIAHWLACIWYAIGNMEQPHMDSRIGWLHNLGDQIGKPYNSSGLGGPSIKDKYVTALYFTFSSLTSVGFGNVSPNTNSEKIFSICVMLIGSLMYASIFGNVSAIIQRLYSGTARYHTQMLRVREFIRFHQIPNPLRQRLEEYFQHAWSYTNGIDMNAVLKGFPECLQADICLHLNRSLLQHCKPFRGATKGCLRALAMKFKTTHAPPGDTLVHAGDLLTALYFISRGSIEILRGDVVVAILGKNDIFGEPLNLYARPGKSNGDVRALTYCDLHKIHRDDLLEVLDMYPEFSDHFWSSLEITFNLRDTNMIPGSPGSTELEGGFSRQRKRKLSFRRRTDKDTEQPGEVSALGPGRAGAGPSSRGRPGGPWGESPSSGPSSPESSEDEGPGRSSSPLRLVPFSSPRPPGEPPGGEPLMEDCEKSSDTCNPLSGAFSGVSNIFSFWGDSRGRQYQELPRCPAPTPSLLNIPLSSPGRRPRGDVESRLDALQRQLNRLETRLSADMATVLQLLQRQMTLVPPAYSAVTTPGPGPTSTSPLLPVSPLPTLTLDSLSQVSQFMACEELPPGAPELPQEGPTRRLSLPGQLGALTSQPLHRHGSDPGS
row,Structure (SMILES),"hERG current change (%, negative = inhibition) at 1uM"
1,O=C(O)CCSC(=S)N1CCOCC1,5.45%
2,CCOC(=O)c1ccc(NC(=S)N2CCN(CCNC3=CC(=O)CC(C)(C)C3)CC2)cc1,11.1%
3,O=C(Cc1c(F)cccc1Cl)Nc1nc2ccccc2s1,4.63%
4,Clc1ccc(-c2nc(N3CCCCC3)nc3ccccc23)cc1,6.62%
5,Cc1ccc(C(=O)N/C(=C\c2ccc(-c3ccccc3[N+](=O)[O-])o2)C(=O)NCCCN(C)C)cc1,-14.9%
6,CCCN(C(=O)c1cc(Cl)nc2ccccc12)c1c(N)n(Cc2ccccc2)c(=O)[nH]c1=O,-2.99%
7,CN(C)S(=O)(=O)c1ccc(N2CCCC2)c(C(=O)Nc2nc(-c3cc(F)ccc3F)cs2)c1,5.97%
8,Cc1noc(C)c1CSc1ccc2ccccc2n1,4.91%
9,Cc1cc(C(=O)NNC(=O)c2cccs2)nn1C(C)(C)C,6.27%
10,Cc1ccc(S(=O)(=O)N(c2cccc(C)c2)C2CCS(=O)(=O)C2)cc1 (centres unmarked),6.79%
11,COc1ccc(C(C[N+](=O)[O-])c2c(-c3ccccc3)cc3ccccn23)cc1OC (centres unmarked),6.52%
12,CCc1ccc(-c2nc(CS(=O)CC(=O)NCCCN3CCOCC3)c(C)o2)cc1 (centres unmarked),20.8%
13,COc1ccc(CN2C(=NC(=O)C3CCCCC3)SC3CS(=O)(=O)CC32)cc1 (centres unmarked),3.61%
14,O=C(/C=C/c1ccccc1)Nc1ccc(NC(=O)c2cccs2)cc1,6.21%
15,CN(CCOc1ccccc1)CC(=O)Nc1ccc(Cl)cc1[N+](=O)[O-].O=C(O)C(=O)O,4.11%
16,CN(CC(=O)Nc1ccc(N2CCOCC2)cc1)Cc1cc(=O)n2ccsc2n1,1.49%
17,Cc1cccc(C)c1Nc1c(-c2ccc(N3CCOCC3)cc2)nc2ncccn12,6.9%
18,CCCCOC(=O)c1[nH]c(C)c(C(=O)OC)c1C,15.4%
19,O=C(CNCc1ccccn1)Nc1ccc([N+](=O)[O-])cc1C(=O)Nc1ccccc1F,16.1%
20,O=C(NC(Cc1ccccc1)C(=O)O)/C(=C\c1ccco1)NC(=O)c1ccccc1 (centres unmarked),9.51%
21,CC1(C)Cc2[nH]c(=O)c(C#N)cc2CS1,-5.4%
22,COc1cc(OC)cc(-c2cc(N3C(=O)Nc4ccccc4N3O)n[nH]2)c1,13%

row,Structure (SMILES),"hERG current change (%, negative = inhibition) at 1uM"
1,Cc1ccc(N(CC(=O)NCCc2ccc(F)cc2)S(=O)(=O)c2ccc(Cl)c([N+](=O)[O-])c2)c(C)c1,6.26%
2,COc1ccc(C(C(=O)NC2CCCC2)N(C(=O)CNC(=O)c2ccco2)c2cccnc2)cc1 (centres unmarked),7.36%
3,Cc1cc(OCC(=O)O/N=C(\N)c2ccccc2)ccc1Br,17.2%
4,COc1ccccc1C1=NNC(=NCc2ccccc2)SC1,9.34%
5,CS(=O)(=O)N1CCN(c2cccc(Cl)n2)CC1,16.6%
6,CN(Cc1nc(-c2ccc(C(F)(F)F)cc2)no1)C1CCOCC1,8.84%
7,COCCn1c(SCc2ccc(C(=O)OC)o2)nc2cc(Cl)ccc2c1=O,4.1%
8,O=C(CSc1nc(C2CC2)nc2ccccc12)NCc1ccc2c(c1)OCO2,14.6%
9,Cc1ccc(NC(=O)[C@@H](NC(=O)c2cccc(S(=O)(=O)N3CCOCC3)c2)C(C)C)cc1C,7.51%
10,CN(C)/C=C(\C=O)c1ccc(Cl)cc1Cl,6.78%
11,CCN1CC(CN(C)Cc2nc(COc3ccccc3)no2)CC1=O (centres unmarked),13.9%
12,COc1ccc(NC(=S)N(CCCN2CCCCC2)Cc2cccs2)cc1,-50.1%
13,CCN(C(=O)COC(=O)C1CCN(S(=O)(=O)c2c(Cl)cccc2Cl)CC1)C1CCCCC1,3.91%
14,Cc1nnc(SCC(=O)NC(=O)NCc2ccco2)n1Cc1ccccc1,10.2%
15,O=C(NCCc1ccccc1)c1ccc(S(=O)(=O)N2CCCC2)cc1,1.97%
16,COCCN(C(=O)Nc1ccc(OC)cc1OC)C1CCN(C(C)C)CC1,6.89%
17,CCOC(=O)C1CCCN(C(=O)c2ccc(OCC)cc2)C1 (centres unmarked),9.68%
18,COc1ccc(CC(=O)N/N=C/c2ccc(Cl)s2)cc1OC,7.65%
19,Cc1cc(NC(=O)CSc2nc(Cc3ccc(O)cc3)c(C)[nH]2)no1,-2.35%
20,Cc1ccccc1N1CCN(CC(=O)Nc2nc(C)c(C(=O)N(C)C)s2)CC1,9.73%
21,COc1ccc(OC)c(S(=O)(=O)Nc2ccc(C(C)=O)cc2)c1,4.91%
22,O=C(NCCCc1ccccc1)N1CCOCC1,7%

row,Structure (SMILES),"hERG current change (%, negative = inhibition) at 1uM"
1,Cl.O=C(O)c1ccccc1N/N=C\c1ccnc2ccccc12,14.7%
2,C=CCC1CCC/C(=N\NS(=O)(=O)c2ccc(C)cc2)C1 (centres unmarked),11%
3,COc1ccc(Br)cc1CNCC1CCCO1 (centres unmarked),9.62%
4,COc1cccc(C(=O)Nc2nc3ccc(S(C)(=O)=O)cc3s2)c1,12.7%
5,O=C(NCCc1nccs1)C1CCC(=O)N(CCc2ccc(Cl)cc2)C1 (centres unmarked),5.69%
6,Cc1ccc(-n2nc(C)c(NC(=O)COC(=O)c3ccccc3NCCO)c2C)cc1,7.81%
7,C#Cc1cccc(NC(=O)c2ccc(Cl)cc2Cl)c1,8.52%
8,Cc1ccc(-c2nn3c(C)nnc3s2)cc1N,-10.5%
9,Clc1ccc(CN2CCN(c3ncnc4scc(-c5cccs5)c34)CC2)cc1,-1.8%
10,CCN(CC)c1ccc(N=Cc2c(O)n(CCc3ccc(OC)c(OC)c3)c(=O)[nH]c2=O)cc1,16.4%
11,CCn1c(SCC(=O)Nc2ccc(N(C)C)cc2)nnc1-c1cccc(C)c1,1.54%
12,CCCCCOc1ccc(C(=O)Nc2ccc(S(=O)(=O)Nc3cc(C)on3)cc2)cc1,17%
13,O=C(N/N=C/c1c(O)ccc2ccccc12)c1cccc(C(F)(F)F)c1,13.9%
14,O=C(NCCc1ccccc1)C1CCN(S(=O)(=O)c2ccc(Br)s2)CC1,1.98%
15,O=C(O)CC1(CC(=O)Nc2ccc(Cl)cc2C(=O)c2ccccc2)CCCC1,11%
16,CCCn1c(O)c(CN2CCCCC2)c(C)c(C#N)c1=O,12.3%
17,CC(=O)c1cccc(NC(=O)c2cc(-c3ccncc3)nc3ccccc23)c1,6.32%
18,CC(CN1CCCC1)OC(=O)c1ccc(Cl)cc1Cl.Cl (centres unmarked),7.55%
19,O=C(NCc1ccccc1Cl)C(=O)NCC1OCCCN1S(=O)(=O)c1cccs1 (centres unmarked),6.57%
20,C[C@H](NC(=O)N1CCn2c1nc1ccccc12)C(=O)NC1CCCCC1,-1.62%
21,CCc1ccc(OCC(=O)NC(=S)Nc2ccc(S(=O)(=O)NC3CCCCC3)cc2)cc1,19.8%
22,O=[N+]([O-])c1ccc(Cl)c(S(=O)(=O)Nc2ccc(-c3ccc(N4CCOCC4)nn3)cc2)c1,14.1%

row,Structure (SMILES),"hERG current change (%, negative = inhibition) at 1uM"
1,O=C(O)CN1C(=O)/C(=C\c2cc([N+](=O)[O-])ccc2OCc2ccccc2Cl)SC1=S,20%
2,CCOC(=O)CC1C(=O)NCCN1S(=O)(=O)c1ccc(F)cc1 (centres unmarked),2.94%
3,COc1cc(C(=O)N/C(=C\c2cn(C)c3ccccc23)C(=O)NCCN2CCOCC2)cc(OC)c1OC,16.7%
4,CC(=O)Nc1c(-c2ccc3ccccc3c2)nc2ccccn12,4.13%
5,CCOC(=O)C1CCCN(c2cc(C)nc3cc(-c4ccc(F)cc4)nn23)C1 (centres unmarked),5.1%
6,Clc1cc(Br)ccc1OCCN1CCOCC1.O=C(O)C(=O)O,8.04%
7,CC(C)(C)NC(=O)C(c1ccc(O)cc1)N(C(=O)CCC(=O)Nc1ccccn1)c1ccc(F)cc1 (centres unmarked),16.3%
8,Cc1ccc(N2C(=O)CC(n3ccnc3)C2=O)cc1C (centres unmarked),-3.17%
9,O=C(CC1C(=O)NCCN1C(=O)Nc1ccc(F)cc1F)Nc1ccc(F)cc1 (centres unmarked),20.2%
10,COc1ccc(C(=O)Nc2ccc3c(c2)CCCN3C(=O)c2cccs2)c(OC)c1,4.76%
11,O=C(C1CCCN(S(=O)(=O)c2cccc3nsnc23)C1)N1CC=C(c2ccccc2)CC1 (centres unmarked),-10.1%
12,Cc1ccc(S(=O)(=O)N(C)C)cc1NC(=O)c1ccncc1,7.19%
13,O=C(CCn1nnc2ccccc21)N1CCC(O)(c2cccc(F)c2)CC1,10.5%
14,O=C(NC1=NCCS1)c1ccc(Cl)c(S(=O)(=O)N2CCOCC2)c1,17.4%
15,COc1ccc(-n2c(-c3ccccc3)nnc2-c2ccc(Cl)cc2)cc1,5.53%
16,COc1ccc(-n2ncc3c(NCc4cccnc4)ncnc32)cc1,2.06%
17,COc1ccc(C(=O)NNC(=O)COc2ccc(Cl)cc2C)cc1S(=O)(=O)N1CCOCC1,-11.1%
18,COc1cccc(OC)c1CN(C)C(=O)c1cnccc1C(F)(F)F,9.21%
19,CCc1c(C)nc2ncnn2c1Nc1ccccc1C,4.45%
20,OCc1cc(C(O)CNCCCCCCOCCCCc2ccccc2)ccc1O (centres unmarked),-16.8%
